# Source: the antibiotic and cytotoxicity screens of Wong et al. (2023)
# The other results are listed elsewhere or left out.
# System: HepG2
# Experiment: cytotoxicity call (relative viability < 0.9)
# Conditions: 10 µM
row,SMILES,cytotoxicity call
1,CCOC(=O)C[C@@H](N)c1ccccc1Cl,inactive
2,Cc1ccc(S(=O)(=O)Nc2ccc3c(c2)C(=O)N([C@@H](C)CO)C[C@@H](C)[C@@H](CN(C)Cc2ccccc2)OCCCC[C@H](C)O3)cc1,inactive
3,COc1ccccc1S(=O)(=O)N[C@@H]1CC[C@H](CCNC(=O)C2CCOCC2)O[C@H]1CO,inactive
4,C[C@@H]1CN([C@@H](C)CO)C(=O)Cc2cc(NC(=O)Cc3cn(C)c4ccccc34)ccc2O[C@H]1CN(C)Cc1ccc(-c2ccccc2)cc1,inactive
5,COc1ccc(NC(=O)N(C)C[C@H]2OCCCC[C@H](C)Oc3ccc(NC(=O)Cc4ccccc4)cc3C(=O)N([C@H](C)CO)C[C@@H]2C)cc1,inactive

# System: S. aureus RN4220
# Experiment: growth inhibition call (relative growth <= 0.2)
# Conditions: 50 µM
row,SMILES,growth inhibition call
1,O=C([O-])CCNC(=O)c1ccc(N=Nc2ccc(O)c(C(=O)[O-])c2)cc1.[Na+].[Na+],inactive
2,C[C@H](CO)N1C[C@H](C)[C@H](CN(C)S(=O)(=O)c2cn(C)cn2)Oc2ccc(NC(=O)CCCCCC(=O)Nc3ccccc3N)cc2C1=O,inactive
3,O=C1CN(S(=O)(=O)Cc2ccccc2)C[C@@H]2[C@@H](c3ccc(C#Cc4cccc(F)c4)cc3)[C@@H](CO)N12,inactive
4,C[C@@H]1CN([C@H](C)CO)C(=O)Cc2cc(NC(=O)c3ccncc3)ccc2O[C@H]1CN(C)Cc1ccc(C(=O)O)cc1,inactive
5,C[C@H]1CN([C@@H](C)CO)C(=O)c2cccc(NS(=O)(=O)c3ccccc3)c2O[C@H]1CN(C)CC1CC1,inactive
6,Cc1ccc(S(=O)(=O)Nc2ccc3c(c2)CC(=O)N([C@H](C)CO)C[C@@H](C)[C@@H](CN(C)C(=O)Nc2cccc4ccccc24)O3)cc1,inactive
7,COc1ccc(S(=O)(=O)N(C)C[C@H]2Oc3ccc(NS(=O)(=O)c4cn(C)cn4)cc3C(=O)N([C@H](C)CO)C[C@@H]2C)cc1,inactive
8,C[C@@H]1CN([C@H](C)CO)C(=O)c2cccc(NC(=O)Nc3ccc(C(F)(F)F)cc3)c2O[C@@H]1CN(C)C(=O)NC1CCCCC1,inactive
9,Cc1cc(O)c2c(c1)C(=O)c1cc(O)cc(O)c1C2=O,inactive
10,Cc1noc(C)c1NC(=O)N(C)C[C@@H]1Oc2ccc(NS(=O)(=O)c3cn(C)cn3)cc2C(=O)N([C@@H](C)CO)C[C@@H]1C,inactive
11,CC(C)CC#Cc1ccc2c(c1)O[C@@H](CN(C)C(=O)c1cccnc1)[C@H](C)CN([C@@H](C)CO)S2(=O)=O,inactive
12,CC(C)C#Cc1ccc2c(c1)O[C@@H](CN(C)S(=O)(=O)c1cn(C)cn1)[C@H](C)CN([C@@H](C)CO)S2(=O)=O,inactive
13,COc1ccc(NC(=O)N(C)C[C@H]2Oc3ccc(NC(=O)CCN4CCOCC4)cc3CC(=O)N([C@H](C)CO)C[C@@H]2C)cc1,inactive
14,C[C@H]1CN([C@@H](C)CO)C(=O)c2cc(NC(=O)C3CC3)ccc2O[C@@H]1CN(C)S(=O)(=O)c1ccc(Cl)cc1,inactive
15,CC(CS)C(=O)N1CCCC1C(=O)O (centres undefined),inactive
16,C[C@H]1CN([C@@H](C)CO)C(=O)Cc2cc(NC(=O)Cn3cnnn3)ccc2O[C@@H]1CN(C)C(=O)NC1CCCCC1,inactive
17,C[C@@H]1CCCCO[C@H](CN(C)S(=O)(=O)c2cn(C)cn2)[C@@H](C)CN([C@@H](C)CO)C(=O)c2cc(NC(=O)Nc3cccc4ccccc34)ccc2O1,inactive
18,COc1cccc(C#Cc2ccc3c(c2)O[C@H](CN(C)S(=O)(=O)c2ccccc2F)[C@H](C)CN([C@@H](C)CO)S3(=O)=O)c1,inactive
19,Cc1noc(C)c1NC(=O)Nc1ccc2c(c1)C(=O)N([C@H](C)CO)C[C@@H](C)[C@@H](CN(C)Cc1ccc3c(c1)OCO3)OCCCC[C@H](C)O2,inactive
20,CCCNC(=O)[C@@H]1c2ccccc2C(=O)N(Cc2cc(C(F)(F)F)cc(C(F)(F)F)c2)[C@H]1c1ccc(CO)cc1,inactive
21,COc1ccc(NC(=O)N(C)C[C@@H]2OCCCC[C@@H](C)Oc3ccc(NC(=O)Cc4ccccc4)cc3C(=O)N([C@H](C)CO)C[C@@H]2C)cc1,inactive
22,COCC(=O)N1C[C@H](C)[C@H](OC)CN(C)C(=O)c2cc(NC(=O)Nc3ccccc3)ccc2OC[C@H]1C,inactive
23,C[C@H](CO)N1C[C@H](C)[C@H](CN(C)S(=O)(=O)c2cccs2)OCCCC[C@H](C)Oc2ccc(NS(=O)(=O)c3ccc(Cl)cc3)cc2C1=O,inactive
24,C[C@@H]1CN([C@H](C)CO)C(=O)c2cc(NC(=O)CCCN(C)C)ccc2O[C@@H]1CN(C)Cc1ccncc1,inactive
